The campaign covered roughly 310,000 compounds. About 14,000 (4.5%) showed an effect of 50% or more. Effects have a minus sign here. Some of the results follow.
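Further: peak tail current of the secondary pulse compared with the same well before compound.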

The target of the experiment is human ether-à-go-go-related gene (hERG) potassium channel (human, UniProt Q12809). As to the kind of experiment: primary screen, population patch clamp on CHO cells stably expressing hERG.
human ether-à-go-go-related gene (hERG) potassium channel, sequence (Q12809 whole entry, looked up): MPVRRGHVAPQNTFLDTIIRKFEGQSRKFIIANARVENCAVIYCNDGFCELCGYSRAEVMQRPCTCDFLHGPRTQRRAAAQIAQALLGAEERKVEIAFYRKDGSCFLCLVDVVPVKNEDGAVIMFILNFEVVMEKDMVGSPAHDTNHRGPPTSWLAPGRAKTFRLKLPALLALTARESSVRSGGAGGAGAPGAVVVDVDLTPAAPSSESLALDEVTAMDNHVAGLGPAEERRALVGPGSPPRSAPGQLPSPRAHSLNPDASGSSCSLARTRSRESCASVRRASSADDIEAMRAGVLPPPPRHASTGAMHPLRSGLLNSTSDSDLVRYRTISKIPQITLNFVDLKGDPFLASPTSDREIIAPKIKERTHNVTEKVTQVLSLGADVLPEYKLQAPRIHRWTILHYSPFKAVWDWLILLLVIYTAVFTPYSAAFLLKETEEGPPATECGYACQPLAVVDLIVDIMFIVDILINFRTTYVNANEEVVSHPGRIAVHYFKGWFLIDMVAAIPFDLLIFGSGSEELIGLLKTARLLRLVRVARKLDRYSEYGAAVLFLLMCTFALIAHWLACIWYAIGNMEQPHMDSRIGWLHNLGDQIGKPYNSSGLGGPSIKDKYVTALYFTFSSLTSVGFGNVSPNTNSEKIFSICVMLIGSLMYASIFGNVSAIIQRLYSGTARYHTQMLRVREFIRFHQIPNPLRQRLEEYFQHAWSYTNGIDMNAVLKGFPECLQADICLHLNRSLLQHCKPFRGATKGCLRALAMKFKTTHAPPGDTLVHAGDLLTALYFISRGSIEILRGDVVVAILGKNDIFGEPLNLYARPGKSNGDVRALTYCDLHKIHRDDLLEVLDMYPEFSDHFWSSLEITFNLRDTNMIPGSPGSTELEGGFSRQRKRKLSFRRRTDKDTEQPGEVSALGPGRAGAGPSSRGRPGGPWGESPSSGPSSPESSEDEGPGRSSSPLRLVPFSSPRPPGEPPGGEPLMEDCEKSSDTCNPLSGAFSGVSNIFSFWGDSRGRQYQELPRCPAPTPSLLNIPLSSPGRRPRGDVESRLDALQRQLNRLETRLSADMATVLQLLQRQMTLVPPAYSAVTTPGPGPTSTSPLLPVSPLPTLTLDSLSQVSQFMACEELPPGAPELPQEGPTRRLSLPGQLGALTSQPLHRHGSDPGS
For the compound `CC12CCC(=O)N1C(C(=O)Nc1cc(C(F)(F)F)ccc1N1CCCCC1)CS2` (stereo not shown), the “hERG current change (%, negative = inhibition) at 10uM” value stood at 8.84%.
As for `Cc1ccc(S(=O)(=O)Nc2cccc(C(=O)NCC(c3ccco3)N(C)C)c2)cc1F` (stereo not shown), the figure is -29.1%.
For `Cc1c(NS(=O)(=O)c2ccc(Cl)c(C(=O)OC(C)C(=O)N3CCOCC3)c2)c(=O)n(-c2ccccc2)n1C` (stereo not shown) the value was 5.07%.
Turning to `O=C(NC(=S)NCc1cccnc1)c1ccc([N+](=O)[O-])cc1`, the “hERG current change (%, negative = inhibition) at 10uM” value is -48.3%.
As for `COc1cc(C2NC(=O)NC(C)=C2C(=O)OC(C)(C)C)ccc1OCC(N)=O` (stereo not shown), the figure is 9.28%; as for `O=C(CNC(=O)Cc1ccccc1)N=Nc1c(O)[nH]c2ccccc12`, 2.61%.
For `CCOC(=O)N1CCN(C(=O)c2cn(CC)c3cc(N4CCN(C)CC4)c(F)cc3c2=O)CC1.Cl` the value was 12.6%; for `O=C(O)c1c(C(=O)O)c(-c2ccc(F)cc2)n2c1CCC2`, 1.97%.
For `CS(=O)(=O)Nc1ccc(C2=NN(C(=O)c3ccco3)C(c3ccccc3F)C2)cc1` (stereo not shown) the value was -78.2%; for `O=C(CNCCc1ccc(F)cc1)Nc1cc(F)ccc1F.O=C(O)C(=O)O`, -19.9%; for `Cc1ccc2c(c1)C(=NC1CCCCC1)c1cc3ccccc3nc1-2`, 10.1%.
Consider `O=S1(=O)CC2N=C(N(Cc3ccc(F)cc3Cl)c3ccccc3F)SC2C1` (stereo not shown), for which the “hERG current change (%, negative = inhibition) at 10uM” value is given as 6.43%.
For `O=S(=O)(c1cccc(S(=O)(=O)N2CCCC2)c1)N1CCCCC1` the value was -22.2%.
As for `Nc1ccc(S(=O)(=O)NC2(C(F)(F)F)NC(=O)N(c3ccccc3Cl)C2=O)cc1` (stereo not shown), the figure is 1.42%; as for `Cc1cc(NC(=O)CSCC(=O)N(c2cccc(Cl)c2)C(C(=O)NC2CCCCC2)c2ccc(O)c(O)c2)no1` (stereo not shown), 2.39%.
For `COc1cc2c(cc1OC)C(C(=O)Nc1ccccc1N1CCN(C)CC1)C1c3ccccc3CCN1C2=O` (stereo not shown) the value was -26.7%; for `COc1ccc(S(=O)(=O)Nc2ccccc2OC)cc1C`, -2.75%.
Regarding `CCN(CCS(=O)(=O)c1ccc(Cl)cc1)C(=O)Nc1ccccc1`, the “hERG current change (%, negative = inhibition) at 10uM” value worked out at 5.64%.
As for `O=C(Nc1ccc(Cl)cc1)c1csc(-c2ccccc2)n1`, the figure is 6.24%; as for `O=C1C(C=NCCCn2ccnc2)=C(O)c2ccccc21`, -8.86%.
For `O=C(CCc1nnc(C2CCCCC2)o1)N1CCCCC1CCn1cccn1` (stereo not shown) the value was 3.65%.
Consider `Cc1ccccc1C(=O)Nc1cccc(-c2ccc(N3CCOCC3)nn2)c1`, for which the “hERG current change (%, negative = inhibition) at 10uM” value was -3.56%.
As for `CN(C)CCNC(=O)Cn1ccc2cc(S(=O)(=O)N3CCCCC3)ccc21`, the figure is 8.47%.
For `COc1ccc(NC(=O)c2cc(S(=O)(=O)N3CCCCC3)c[nH]2)c(OC)c1` the value was -11.7%; for `Cc1c(N(C(=O)CNC(=O)c2ccccc2)C2(C(=O)NC3CCCCC3)CCCCC2)c(=O)n(-c2ccccc2)n1C`, -0.641%; for `CC(=O)/C=C(/C)NC(Cc1c[nH]c2ccccc12)C(=O)O` (stereo not shown) [14727836], 0.628%.
For `CCCc1c(C)c2ccccc2[nH]c1=O` the value was 6.28%.
Consider `COc1ccc(-n2c(N)c(C#N)c3ccc([N+](=O)[O-])cc3c2=O)cc1`, for which the “hERG current change (%, negative = inhibition) at 10uM” value is given as -2.75%.
As for `O=P(O)(CCCP(=O)(O)CCc1ccccc1)CCc1ccccc1`, the figure is -1.56%; as for `C[C@]12CC[C@H]3[C@@H](CCC4=CC(=O)CC[C@@]43C)[C@@H]1CC[C@@H]2C(=O)CO`, -10%; as for `CCN(CC(=O)Nc1c(F)cccc1F)C(=O)CCCOc1ccc(OC)cc1`, -7.58%.
As for `CCC(=O)Nc1nnc(-c2ccccn2)o1`, the figure is 12.7%; as for `CCN(CC)C(=S)SCC(=O)Nc1nc(-c2ccccc2)c(-c2ccccc2)o1`, 15.6%.
For `NCCCC[C@H]1CNC(=O)C(=O)N1CCc1cc(C(F)(F)F)cc(C(F)(F)F)c1`, the “hERG current change (%, negative = inhibition) at 10uM” value is recorded as 15.8%.
For the compound `Cc1ccc(-c2nc(N)sc2CC(=O)OCC(=O)NCC2CCCO2)cc1` (stereo not shown), the “hERG current change (%, negative = inhibition) at 10uM” value stood at 0.809%.
As for `N#C/C(=C\c1ccccc1Cl)C(=O)Nc1ccccn1`, the figure is 12.9%.
As for `Cc1ccc(-n2ncc3c(NCCCN4CCCC4=O)ncnc32)c(C)c1`, the figure is 13.2%; as for `CCC(C)NC(=O)Nc1ccc(Br)cc1Cl` (stereo not shown), 15.8%; as for `C[C@@H](NC(=O)[C@@H]1Cc2ccccc2CN1)C(=O)Nc1ccc2c(c1)OCCO2`, 3.19%.
As for `COc1cccc(-c2noc(CCC(=O)NC3CCCC3)n2)c1`, the figure is 7.42%; as for `Nc1nc(OCC(F)(F)F)cc(Oc2ccccc2F)n1`, -8.12%; as for `c1ccc(Cn2cc(CNc3ccccc3)nn2)cc1`, 9.73%.
`COC(=O)[C@H]1[C@H](c2ccccc2)[C@H](C(=O)OC)O[C@H]1c1ccccc1`: the “hERG current change (%, negative = inhibition) at 10uM” value was found to be 3.18%.

The values are drawn from article PMC4336329 (PLoS ONE, 2015).
